# Results reported in the RNAGym collection of RNA variant scans (doi:10.1073/pnas.2313332121).
# Variants at the background level are over-represented here.
# B1: TPR 5TU (parent)
# chain: GGAUCUUCUCGAUCUAACAAAAAAGACAAAUCUGCCACAAAGCUUGAGAGCAUCUUCGGAUGCAGAGGCGGCAGCCUUCGGUGGCGCGAUAGCGCCAACGUUCUCAACUAUGACACGCAAAACGCGUGCUCCGUUGAAUGGAGUUUAUCAUG
# Variants of: B1
# Assay: polymerase ribozyme fitness, log enrichment relative to wild type (log ratio); higher = more active; in vitro selection for triplet polymerase activity
# Method in brief: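 The heterodimeric triplet polymerase ribozyme's subunits were each mutagenized into PCR-built libraries and transcribed. Every library was selected once, in triplicate, by annealing with a biotinylated primer, the partner subunit and triplets, incubating frozen at −7 °C, gel-excising extended constructs, capturing on streptavidin beads and running RT-PCR. Input and output libraries were Illumina-sequenced, with genotypes kept only at ≥10 input reads and ≥1 read per output. Fitness, from inverse-variance-weighted replicate averages, is the base-2 logarithm of genotype enrichment over wild-type enrichment.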
row,Variant,polymerase ribozyme fitness (log ratio)
1,U53C A73G G84A U109G G140C,≤ -4.2
2,U55A C129A,-2.11
3,U53A C54A G65U G86U A91U,≤ -4.2
4,C54U C85U C95A,-1.84
5,U53A A97C,-0.583
6,C54A C79U C93A A113U U127G,≤ -4.2
7,C54U G71U G80C G92U A110C,≤ -4.2
8,U55A A60C,-4.18
9,U53A U90A C96U C114U A115C,≤ -4.2
10,U53A C87U,-0.931
11,C54G C95U,-2.35
12,U53A U77C G92U C108G C149U,≤ -4.2
13,A52U U139A U146C,≤ -4.2
14,U53C C87U A98U G100C C116A G143U,≤ -4.2
15,U53A C79U A89G U134G,≤ -4.2
16,U53A C76U G83A,-1.6
17,U53G C93A,≤ -4.2
18,C54A G88C,-3.99
19,C54U C108A,≤ -4.2
20,U55A G68C,≤ -4.2
21,C54A G59U A91G U135A,-3.95
22,C54G C87A C108G A138U G143C,≤ -4.2
23,C54G G68A C93A G117A U134A G141C,≤ -4.2
24,C54G G88A C93G G94U A97U C118G C132A U146C,≤ -4.2

row,Variant,polymerase ribozyme fitness (log ratio)
1,C54U C93G A142C U148A,≤ -4.2
2,U55A G68U G94C C116G A137U U146A,≤ -4.2
3,C54G C87U A106U A137U G140U A142C,≤ -4.2
4,U55A G65U G74A A97U C99G,≤ -4.2
5,U53G G68C A73C C85G C96U U102G C108G A119U U148C,≤ -4.2
6,C54A U55A G62U C85A A120U G140U,≤ -4.2
7,C54G G74C C93G,≤ -4.2
8,C54A C57U G86A A89G A120G G136C,≤ -4.2
9,U53G C87G,≤ -4.2
10,U53A C75U,-1.34
11,C54U A60G C95U,-0.803
12,U53A G58A G80A G81A C87U,-2.31
13,U55A G94C U148G,≤ -4.2
14,C54A G80A C103G A110U A120U C132G,≤ -4.2
15,C54G A142U,-1.98
16,U53A U130G A142C,-0.549
17,C54U U77C A98G C99A U101C C118A A142C C149G,≤ -4.2
18,C54A U61A G67A C75A G80U C96A,≤ -4.2
19,C54A G67U,-4
20,U53G G92U G143U U144A,-3.84
21,C54U C96U C118U,-0.868
22,C54U G58U C79G C85G C96A G126A,≤ -4.2
23,U53A C76A C132G U151C,≤ -4.2
24,U55A G124U U139G,0.0477

row,Variant,polymerase ribozyme fitness (log ratio)
1,U53A C69U G83A C85U A98G U111C G126C G141A,≤ -4.2
2,C54U C69U C85U A110G G141C,≤ -4.2
3,C54G U56A A107U,≤ -4.2
4,U53A U101G C125A,-0.788
5,U53A A91U U102G G133U G141A,≤ -4.2
6,C54A A89U G92C A121U,-3
7,U53A U55G C93U A97U A106U G141C C149A,≤ -4.2
8,A52U G59U A60C C93U,≤ -4.2
9,C54U G58C C87G C99G C103G U135G,≤ -4.2
10,U53G G84A,-2.52
11,U53A A60C A64G C85G A97U A106U,≤ -4.2
12,U53A U55A C57A C85G A122G,-2.51
13,C54U U55A C75G G86A A97G,≤ -4.2
14,U53A U146G,-2.38
15,U55A G68A C76A C96U C125G U144A,≤ -4.2
16,C54A C76A G84A,≤ -4.2
17,U53A G86C C103G,≤ -4.2
18,U53A U56A,-2.45
19,U53A C87A C95U C99G C116A A150U,≤ -4.2
20,C54A C63U C99A A115U A142U,≤ -4.2
21,U53A C72U A97G U134A,-3.33
22,U55A G124A,-0.272
23,U53A C87A C95U C105U A122G G152U,≤ -4.2
24,U55A C75U A91U G124C G136U,≤ -4.2

row,Variant,polymerase ribozyme fitness (log ratio)
1,U55A C93U A115U G143U,≤ -4.2
2,C54G C87A G100A A106G C118G A121G U151G,≤ -4.2
3,U53A A66C,-4.19
4,A52U G83A C108G C129U,≤ -4.2
5,U53A C79A G86U A91C G128A,≤ -4.2
6,C54A C87U U148A G152C,≤ -4.2
7,C54U C57A,-0.253
8,U55A G68C A91G A107C,≤ -4.2
9,U55A G70C C79G,≤ -4.2
10,C54A C85U A121G U134A A138G A150U,≤ -4.2
11,U55A A60C U61A G80C,≤ -4.2
12,C54U G58A,0.498
13,C54G U109C C116U C131U A147U,-1.86
14,C54A C57U G59U,-0.27
15,C54U C75A C96A U101G C103A U135C,≤ -4.2
16,U55A A107G,-3.7
17,C54U C57A A64U C87A G141A,≤ -4.2
18,U53A C96U,-1.85
19,C54G G71A G84U U102C C125U U146C U151C,≤ -4.2
20,U53A U56A G68A C96A U104G C105G G117C G133A G136A U139G U145A A150C,≤ -4.2
21,C54A A66C C79A A91G G94A A113C,≤ -4.2
22,C54A A60G G65U A119U,≤ -4.2
23,A52U G83A C95U,-3.78
24,U55A A60U C118G A119C,-0.427

row,Variant,polymerase ribozyme fitness (log ratio)
1,C54G C95G G133A,≤ -4.2
2,U53A G62C C87A C116A G136U U139C U148C,≤ -4.2
3,U55A G83U C99U A107C C123A C125G U127G A142G U145C,≤ -4.2
4,U53A G70A C99A G124C,≤ -4.2
5,C54U C93A G117A A150C,≤ -4.2
6,U55A C95U C132G G141U,≤ -4.2
7,C54A U56G A110U U145G,≤ -4.2
8,U53A A97C A113G,-3.54
9,U53G G62C C85U U109C,≤ -4.2
10,C54G U102C U144A,-3.91
11,U53A C99G A106U U127G C149U,≤ -4.2
12,U53C G74A C79U G81U A91U G94C A97U,≤ -4.2
13,C54A U101G U134C U139G U144A,-1.85
14,C54U U78A U90C G92A G133C,≤ -4.2
15,U55A C57A A60G A73U C132U U145G,-2.26
16,A52U C87G C149G G152C,≤ -4.2
17,C54G G58A C79U G86U C87U C93A U135A G136C,≤ -4.2
18,C54G C57U C76A C95U C105A C129A,≤ -4.2
19,A52U U82G U135G A150U,-2.62
20,C54G A138U,≤ -4.2
21,C54G C103A G140C,≤ -4.2
22,U55A G68U C85A,≤ -4.2
23,C54U C75U C76G C93U U101G C105A G152C,≤ -4.2
24,U55A A91U C96A C125G A142G,≤ -4.2

row,Variant,polymerase ribozyme fitness (log ratio)
1,U55A A97G G133U,≤ -4.2
2,U55A G67C C96U U111A,≤ -4.2
3,U53A G80C A106C C125U,≤ -4.2
4,U53A C57U C87G G124A U135A,≤ -4.2
5,U55A G68U U82C A137U,≤ -4.2
6,A52U C93A U139G,≤ -4.2
7,A52U G68U C87A U102G C108G G141C A150C,≤ -4.2
8,U53A C93U A97U U101C G143C,≤ -4.2
9,U53A C85U C103G,≤ -4.2
10,U53G C87G G133U,≤ -4.2
11,C54G C63A G81A G83A,≤ -4.2
12,U53G U55A C79U G86A G88A C103U U148C,≤ -4.2
13,C54G G80C G81A C85U C129A U135C,≤ -4.2
14,C54A U109G A110C,≤ -4.2
15,U55A G58U G83C G124C C132G,≤ -4.2
16,U53A U55G C57A,0.733
17,C54A C103A G128A C129U,≤ -4.2
18,U53A G117A,-0.303
19,C54G C96A,-2.41
20,U55A G86A C149U A150U,-1.65
21,C54A A60U C72U G86C U102G A122U C149G,≤ -4.2
22,U53A C85U C103G A138G,≤ -4.2
23,U53A C54U G80C G92U G126A C131A,≤ -4.2
24,U53A C54A A147C,-2.75

row,Variant,polymerase ribozyme fitness (log ratio)
1,C54A G84A A142C,-4.19
2,U53G C57G G70C C79G A89U A91U C93U,≤ -4.2
3,C54U G83U C95U U111G U134G,≤ -4.2
4,U55A G92U U146C,-0.69
5,U55A C57G C87G C93U U104G,≤ -4.2
6,C54U C57U C79A C85U C93G A107G C123G,≤ -4.2
7,U53A A73U C87G,≤ -4.2
8,U55A C72U C79A A107G,≤ -4.2
9,C54U G94A,-0.351
10,C54U G94C,-1.15
11,C54U G70C C76U G83C G128C A138C G141C A147U A150G,≤ -4.2
12,A52U G59A A98G C131U,-1.78
13,U53A C87G A89G C114U A115G G143C,≤ -4.2
14,U53G A115C G143A,-4.06
15,C54U G68C,≤ -4.2
16,U53A G58C C75G C93A U148G,≤ -4.2
17,U53A A66G G88U C93G C149G,≤ -4.2
18,C54G C96A A98G A106U A138C U139C,≤ -4.2
19,U55A G94U C108A,≤ -4.2
20,C54U C85U C129U,-0.134
21,C54A G94C A138C,≤ -4.2
22,C54U G59C A60G A122U,0.186
23,C54U U78A G86U U104C C105A U130G C132A G136A,≤ -4.2
